Laboratory results published in publication PMC4242493.
This is one part of the list. The list includes weakly bound sequences.

target: MaxL homodimer (UniProt P61244); assay: universal protein-binding microarray (PBM); conditions: PBS-based mixture, 10 nM His-tagged protein dimer, 2% milk, 200 ng/uL BSA, 50 ng/uL salmon testes DNA, 0.02% TX-100; detection with Alexa 488 anti-His …; high values mean tight binding; most listed sequences are background and not binding sites; double strand, one strand shown
Chain of UniProt P61244 (P61244 whole entry): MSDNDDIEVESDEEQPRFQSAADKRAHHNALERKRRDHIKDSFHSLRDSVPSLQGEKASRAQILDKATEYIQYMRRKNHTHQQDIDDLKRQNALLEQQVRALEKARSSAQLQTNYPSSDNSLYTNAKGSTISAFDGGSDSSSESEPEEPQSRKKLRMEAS

Sequence	binding signal (normalized occupancy)
GGCGTACC	0.0666
CGGGCTGC	0.0667
CGACTGCC	0.0712
GAACGTTC	0.0746
AAAGACGA	0.076
ACGAATAA	0.081
AACGTCCA	0.0778
GGGCGGAC	0.0692
CTTGCTTC	0.0724
CGCGTTCA	0.0709
AACGCTCT	0.0765
GACAGTGC	0.0787
CGTTTAAA	0.0762
GTAGCACA	0.0812
AAAGCCAG	0.0727
AAACCGTC	0.0684
GGCCTCCA	0.0698
TGACATCA	0.0834
GGATAGGA	0.0793
AGCCTACA	0.0751
CCCTAATC	0.0793
CAATCCAC	0.08
ACTGTGGC	0.0717
CAGACATG	0.0872

Sequence	binding signal (normalized occupancy)
CAGTTGAC	0.0741
ATGCCACC	0.0841
ACCAAGGC	0.0726
CCCTTTCG	0.0705
ATGGCTTA	0.0763
ACCTATTG	0.0786
GAACTAGC	0.0682
GTTGATCA	0.0828
GCCTGCCA	0.072
CCAGTTCA	0.0721
ACAATTTA	0.0774
CATCTTCG	0.0743
GTTTGATA	0.0778
TCAGAGGA	0.0732
GAAAGACA	0.0725
GCTCCTCC	0.0704
AGTAGTAT	0.0771
AACAGCGA	0.0748
CCCCGAGC	0.076
CGCAGTCA	0.0756
TCCCGAAA	0.0756
AGGGTCCA	0.0731
CATCGATC	0.0786
AGTAAGCC	0.0703

Sequence	binding signal (normalized occupancy)
CCAGCCTC	0.0759
ATGGCGCC	0.0751
AATCGTAT	0.0799
GACGAAGC	0.0723
CTGCCGAC	0.0704
CTGATCCA	0.0828
CGTGAAAG	0.0855
CTACCACC	0.0824
ACACTCCC	0.0794
CGCGACAC	0.0749
AGGAACGA	0.0744
AGTATTCA	0.0798
AAATGAGT	0.079
CTAGCCAA	0.0693
GCCTTTAA	0.0723
AGTGACGC	0.0753
AGGGAATC	0.0755
AAGCCCGT	0.0737
GCCTACCC	0.0797
ATATGTCC	0.0855
GCATAATA	0.0803
GCACGGAC	0.0746
GAGACCAA	0.0679
CCGATTAA	0.0728

Sequence	binding signal (normalized occupancy)
ACACCTCT	0.0739
CCCCACAG	0.0785
ATGGGCTG	0.0762
CTCTGTCA	0.0747
GTCGGTCA	0.0724
CGCTGACC	0.069
CGGCTTAG	0.0692
ACCGACAA	0.0767
GAACGGTC	0.0707
ACTTCCTG	0.0713
AATCGTGC	0.0839
ACAGCGGC	0.0731
CCGCGAGC	0.0693
AAAACTAA	0.073
CAACGACC	0.0709
AGCTTCCT	0.0666
GAGAATAA	0.0755
AGGAAAAG	0.0736
CACTCTTA	0.0778
CGTTGACC	0.0795
AGGGGTTC	0.0749
ACAATTGC	0.0792
